# Some of the results follow.
# B1: chr20:3649766:3649867:+|3pUTR|ENSG00000088812|unk|total|mutant (ssRNA)
# RNA: GGGAGUUCUACAGUCCGACGAUCAAGUUCAAAGACUAACCUGCCGCAAUCAGACUUUCCAAAAGGGGGUUCUCCAUUUUUUGCCGUUUUGUCUAAAUUUUUAAUGACCAUUUCCUGGAAUCAGUUUAUUAUACUGAAAACUGGCAACAGAGGAUUGAGCAUCA
# B2: chr12:120700859:120700960:+|3pUTR|ENSG00000110917|msi1|FALSE|unique (ssRNA)
# RNA: GGGAGUUCUACAGUCCGACGAUCUCUUUGCAUCUGUGUGGCUUGCUUCCAGUCUGGCCUGUCCUUUCCAGCUGCCUUUUGUCUAGCCUGCUAUGGGGGGCCAGAUUAUCUUGAUAAGAGCAGGUGAUUUGGGGACUAGCUGGGCAACAGAGGAUUGAGCAUCA
# B3: chr20:1570784:1571137:-|CDS|ENSG00000101307|control|control|control (ssRNA)
# RNA: GGGAGUUCUACAGUCCGACGAUCACAGCUGACCUGGUUGGAGAAUGGAAAUGUGUCCCGGACAGAAACAGCUUCGACCCUCAUAGAGAACAAGGAUGGCACCUACAACUGGAUGAGCUGGCUCCUGGUGAACACCUGUGCCCACAACAGAGGAUUGAGCAUCA
# B4: chr14:71723713:71723820:+|CDS|ENSG00000197555|unk|FALSE|unique (ssRNA)
# RNA: GGGAGUUCUACAGUCCGACGAUCGCUGCCCCCUCACAGCUCGCACCAUCCUUCUCCUCCUCUUCCUCCUCCUCCUCUGGUCCUAGGAGUUUUUACCCUCGCCAGGGCGCUACUAGCAAGUACCUGAUUGGAUGGAAAAAACCCCAACAGAGGAUUGAGCAUCA
# B5: chr3:111884732:111884833:+|CDS|ENSG00000144824|msi1|FALSE|unique (ssRNA)
# RNA: GGGAGUUCUACAGUCCGACGAUCCUUCAACCCAAGUUAACUAGACACAAGGAGCUUGCAUCUGAAAACAUCAAUUUGAGAACUAGGAAGUACUCCAGCAGCAGCCUGAGUCACAUGGGAGCCUACAGCCGAUCACUUCCCAGGCAACAGAGGAUUGAGCAUCA
# B6: chr1:28768968:28769069:+|3pUTR|ENSG00000198492|msi1|FALSE|bound_elsewhere (ssRNA)
# RNA: GGGAGUUCUACAGUCCGACGAUCGACUGCAGCAACGGUUGCAUCUGCAUAUCCUAAGAGGAAAAAAUGACCUUCAAGAGAAUUAGGACUUUUUUCUUAAUUUCACUGACUUCAGAGACGAUUGCAGACUUGCAGUUUAAGUAUCAACAGAGGAUUGAGCAUCA
# B7: chr1:45640296:45640398:-|CDS|ENSG00000159592|unk|total|mutant (ssRNA)
# RNA: GGGAGUUCUACAGUCCGACGAUCCUCUCCACUCUUGUACUUCACAGAAAACCCGCCCCGUGCCAAGCAACCCUCCAAGAUGCCCGUUAUCAAAAAAGUUUCCAAAGAGGAUCCUGCUGCUGCCUUCUCUGCUGCAUUCACCUCCAACAGAGGAUUGAGCAUCA
# B8: chr12:32745429:32745530:+|3pUTR|ENSG00000087470|msi1|total|mutant (ssRNA)
# RNA: GGGAGUUCUACAGUCCGACGAUCCAACGGAAAGAGAAAAGCCUUCCUUUGUUGGCCCUUAAACUGAGUCAAGAUCUGAAAUGCCGAGAUGAUCUCUGACGAUACCUGUAUGUUCUUAUUGUGUAAAUAAAAUUGCUGGUAUGACAACAGAGGAUUGAGCAUCA
# B9: ENSG00000107863:be:win_4551|CDS|ENSG00000107863|bound_else_gene|NA|bound_elsewhere_windowed (ssRNA)
# RNA: GGGAGUUCUACAGUCCGACGAUCCAGCUGUCGCUUUGCCAUCCUGAAAGAGAGCCCCAGGUCACUUCUGGCACAGAAGUCCUCCCACCUUGAAGAGACAGGCUCUGACUCUGGCACUUUGCUCAGCACGUCUUCCCAGGCCUCCAACAGAGGAUUGAGCAUCA
# B10: chr8:39103990:39104232:+|3pUTR|ENSG00000168615|msi1|total|mutant (ssRNA)
# RNA: GGGAGUUCUACAGUCCGACGAUCGUUUUGUCAUUAAGUGUUUAAGUGUUAUUCUGAAUUUUCUACCUCCGUUAUCAUUAAUGCCGUUCCUCAUUGAACAUGUGAUAAUCUAAUACCUGUGAAAACUGACUAAUCAGCUGCCAACAACAGAGGAUUGAGCAUCA
# B11: chr10:119917856:119917957:+|CDS|ENSG00000107651|unk|total|mutant (ssRNA)
# RNA: GGGAGUUCUACAGUCCGACGAUCUAAGAAAAUCACUUUGCCAAGUAUUGGUCGAUUUCGUCACUUUACCAAUGAAACUUUGCCCGAUAUUUUAUUUUAUAACAGCCCCACCUACUGUCAGACAAUUGUGGAAAAAGCCGGAAUCAACAGAGGAUUGAGCAUCA
# B12: ENSG00000072803:stop:overlap|stop_codon|ENSG00000072803|stop_codon|NA|stop_codon (ssRNA)
# RNA: GGGAGUUCUACAGUCCGACGAUCCUGGAUACAGUAAACGGAAAGAAUCUUGGAAGAUGCUUGACUGCUGUCUUUUCUCAGACUAGUCUGAAAGGGAAAACCCCCAUUCAUUCUGGAUUGGUGGAUCUGAAGUACAAAAUAUUUCAACAGAGGAUUGAGCAUCA
# B13: chr11:18297563:18297669:-|CDS|ENSG00000110756|unk|total|mutant (ssRNA)
# RNA: GGGAGUUCUACAGUCCGACGAUCGAUCUAAUUUCUCAACUGGAAGAAUUGAUCUUAAAAUUUGAACCUUUGGAUUCAGCUUGCCGCAGCCGAAGAAGCUCCAUUUCAUCACAUGUAAGUAUUCUCACCUUUAAAGGAUUUUGUCAACAGAGGAUUGAGCAUCA
# B14: chr1:22530103:22530204:+|3pUTR|ENSG00000184677|msi1|total|mutant (ssRNA)
# RNA: GGGAGUUCUACAGUCCGACGAUCCAUGUACCGAGUGGGCAGGCGGUUCCAGGGAGACAAGCAGCAUGUUAUUAAAUUGGGCCCCGGCAGUUGGACGAUAAUGGAGAAAAAGCAGGGAUGCUAUAAUGAGUCCUCCCCAAGGGUCAACAGAGGAUUGAGCAUCA
# Target: MSI1 full-length (mouse, UniProt Q61474 1-362)
# Assay: nsRBNS (natural sequence RNA bind-n-seq); RBNS binding buffer (assumed for nsRBNS): 25 mM Tris pH 7.5, 150 mM KCl, 3 mM MgCl2, 0.01% Triton X-100, 500 ug/ml BSA, 20 U/ml SUPERase-In, 4 C; UNK is unkempt and MSI1 is Musashi-1; names of the RNAs are library labels; protein concentration not given here; high values mean tight binding
# Sequence of UniProt Q61474 (Q61474 whole entry): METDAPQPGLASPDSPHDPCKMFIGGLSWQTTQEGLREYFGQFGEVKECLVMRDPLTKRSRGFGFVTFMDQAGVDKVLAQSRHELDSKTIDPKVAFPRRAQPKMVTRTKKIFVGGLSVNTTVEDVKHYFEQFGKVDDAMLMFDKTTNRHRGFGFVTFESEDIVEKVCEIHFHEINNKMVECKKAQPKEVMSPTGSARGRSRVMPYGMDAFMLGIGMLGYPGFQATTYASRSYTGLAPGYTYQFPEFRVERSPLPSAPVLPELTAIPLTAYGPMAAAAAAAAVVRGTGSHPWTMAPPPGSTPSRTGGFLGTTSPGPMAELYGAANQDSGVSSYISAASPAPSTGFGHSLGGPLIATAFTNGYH
row,Binder,binding signal
1,B1,0.35 enrichment R
2,B2,0.459 enrichment R
3,B3,0.427 enrichment R
4,B4,0.865 enrichment R
5,B5,0.686 enrichment R
6,B6,0.196 enrichment R
7,B7,0.762 enrichment R
8,B8,0.228 enrichment R
9,B9,0.449 enrichment R
10,B10,0.962 enrichment R
11,B11,0.52 enrichment R
12,B12,0.904 enrichment R
13,B13,0.359 enrichment R
14,B14,0.627 enrichment R

# Reference: article PMC12136788
